# Results as given in PubChem BioAssay AID1347120 (National Center for Advancing Translational Sciences (NCATS), 2019).
# Several values for one entry are separate records, joined by “and”; a condition that tells them apart may be missing. Equal values may be shown once. Screen size: about 390,000 compounds; about 930 (0.24%) were called active. The inconclusive results got no clear call from the source; some entries with a clear call stand among them for comparison. Calls come from the whole dose curve; as a rule, active = well fitted activation curve with a large enough effect; inconclusive = small, poorly fitted or top-dose-only effect; inactive = no such curve, though single readings can be large or run the other way. Potencies beside an inconclusive call are fits to weak or partial responses and may not hold up.
# Assay: qHTS for Suppressors of FUS Proteinopathy: Primary screen using FUS-linked yeast assay; note: nearly all actives have a fitted effect of over 55% in size;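 for growth rescue (activation): plate controls were DMSO vehicle for no effect and reference control for full effect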
# Conditions: S. cerevisiae FUS-expressing, OD600, 24 h; Potency: growth rescue; growth rescue (activation): at 76.6 µM (top of the series)
# Method in brief: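 Cultures pregrown in 2.5% raffinose medium are shifted to minimal medium containing 2% galactose to express toxic FUS. Compounds are tested at several concentrations. After 24hr at 30C, growth is quantified at 600 nm absorbance.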
# Potency is the fitted concentration of half-maximal effect; tags give direction and shape of the fitted curve.
Structure (SMILES),Potency,growth rescue (activation)
O=c1cc(CN2CCN(Cc3ccccc3)CC2)c2cc3c(cc2o1)CCC3,"inconclusive: 3.55 µM [activator, full curve]",–
Cc1ccc(/C(O)=C2/C(=O)C(=O)N(c3ccccn3)C2c2cccc([N+](=O)[O-])c2)cc1 (stereo unspecified),"inconclusive: 14.1 µM [activator, partial curve]",–
O=C1CCCC2=C1C(c1ccc(Cl)cc1)C1C(=O)c3ccccc3C1=N2 (stereo unspecified),"inconclusive: 31.6 µM [activator, single point]",–
CC(O)(c1cccc(F)c1)c1nc(-c2cccc(F)c2)cs1 (stereo unspecified),inactive,–
COC(=O)C1=C(C)n2nnnc2NC1c1ccc(Cl)cc1 (stereo unspecified),"inconclusive: 0.891 µM [activator, partial curve, poor fit]",–
CC(C)(C)OC(=O)C[C@@H]1C/C=C\C[C@@H](CC(=O)N(CCO)Cc2ccccc2)C(=O)N[C@H](Cc2c[nH]c3ccccc23)COC1=O,"inconclusive: 28.2 µM [activator, single point]",–
CC(C)(C)c1ccc(OCc2nc(-c3ccccn3)no2)c(Br)c1,"inconclusive: 50.1 µM [activator, single point]",–
CCCCCn1nnnc1C1(C)CCCCC(=O)N1Cc1ccco1 (stereo unspecified),inactive,–
O=C(c1ccc2c(c1)CCN2S(=O)(=O)c1ccccc1)N1CCN(c2ccc(F)cc2)CC1,"inconclusive: 28.2 µM [activator, single point] and active: 17.8 µM",–
COc1ccc(S(=O)(=O)N2CCC(C(=O)Nc3ccc(S(=O)(=O)N4CCCC4)cc3)CC2)cc1OC,"inconclusive: 39.8 µM [activator, partial curve, poor fit]",–
Nc1cccc(-c2cn3cccnc3n2)c1,"inconclusive: 50.1 µM [activator, single point]",–
COc1ccc(NC(=O)CSc2nc3c(c(=O)n2-c2ccccc2)SCC3)c(OC)c1,"inconclusive: 11.2 µM [activator, partial curve, poor fit]",–
Cc1cccc(-n2nnc(C(=O)NCc3ccc4c(c3)OCO4)c2N)c1,inactive,–
CC1C(=O)N(Cc2cn(CCC3OCCCO3)nn2)CCS(=O)(=O)N1Cc1ccc(-c2ccc(Cl)cc2)cc1 (stereo unspecified),"inconclusive: 22.4 µM [activator, partial curve, poor fit]",–
CCN1CCN(S(=O)(=O)c2ccc(Cl)c(C(=O)N(C)C(c3ccccc3)c3ccccc3)c2)CC1,"inconclusive: 25.1 µM [activator, single point]",–
CCOc1ccc(C(=O)c2nc3c(n2O)CCCCC3)cc1,inactive,–
COc1cc(C2C(C#N)=C(N)Oc3n[nH]c(C)c32)cc2c1OCO2 (stereo unspecified),"inconclusive: 50.1 µM [activator, single point]",–
CCOC(=O)C1=C(C)NC2=C(C(=O)CCC2)C1c1cn(Cc2ccc(Cl)cc2Cl)nc1-c1ccccc1 (stereo unspecified),"inconclusive: 56.2 µM [activator, partial curve, poor fit]",–

Structure (SMILES),Potency,growth rescue (activation)
C#CCN(C[C@@H]1[C@@H](OC(=O)Nc2cccs2)[C@@H](OC(=O)Nc2cccs2)Cn2c(=O)n(CCCCCC)c(=O)n21)S(=O)(=O)c1ccc(C)cc1,"inconclusive: 17.8 µM [activator, partial curve, poor fit]",–
Cc1cccc(Cn2cc(C(=O)Nc3ccc(F)c(C(F)(F)F)c3)ccc2=O)c1,inactive,–
Cc1ccc(-n2c(C)nc3c(cnn3-c3ccccc3C)c2=O)cc1F,inactive,–
CCN(Cc1ccccc1)C(=O)C1CCCN(c2ncccn2)C1 (stereo unspecified),inactive,–
CCOC(=O)c1ccc(S(=O)(=O)N2CCN(C(=O)c3cccc(S(=O)(=O)N4CC(C)OC(C)C4)c3)CC2)cc1 (stereo unspecified),"inconclusive: 28.2 µM [activator, partial curve, poor fit]",–
COc1ccc(N2CCN(C(=N)/C(C(C)=O)=C(\C)O)CC2)cc1,–,inconclusive: 55.1% [activator]
CCOC(=O)[C@]12CCCC=C1N(Cc1ccc(Cl)cc1Cl)C(=O)[C@H](CC(=O)NCCc1ccccc1OC)C2,"inconclusive: 28.2 µM [activator, partial curve, poor fit]",–
COCCCn1c(=O)/c(=C\c2ccccc2OC(C)C)s/c1=C(/C#N)C(=O)Nc1ccc(C(=O)O)cc1,"inconclusive: 31.6 µM [activator, partial curve, poor fit]",–
O=C(Nc1nnc(C2CC2)s1)c1cc(S(=O)(=O)N2CCN(c3ccccc3)CC2)ccc1Cl,"inconclusive: 10 µM [activator, partial curve, poor fit]",–
COc1cc(N(C(=O)Cc2cccs2)C(C(=O)NC2CCCCC2)c2cccc(OC)c2OC)ccc1-n1cnnn1 (stereo unspecified),"inconclusive: 28.2 µM [activator, single point]",–
CCOc1ccc(N/C=C/C(=O)c2cc(OC)c(OC)c(OC)c2)cc1,"inconclusive: 35.5 µM [activator, single point]",–
CCOC(=O)[C@@H]1[C@H]2COc3ccc(Br)cc3[C@H]2N2C(=O)N(c3ccc(F)cc3)C(=O)[C@]12C,"inconclusive: 28.2 µM [activator, single point]",–
COc1ccc(-c2csc(Nc3ccc(S(N)(=O)=O)cc3)n2)cc1OC,"inconclusive: 31.6 µM [activator, single point]",–
Cc1cccc(C(=O)N[C@H](C(=O)Nc2ncc(C)s2)C(C)C)c1,inactive,–
CCOC(=O)[C@]12CCCC=C1N(CCc1ccc(OC)c(OC)c1)C(=O)[C@H](CC(=O)NCC13CC4CC(CC(C4)C1)C3)C2,"inconclusive: 22.4 µM [activator, single point]",–
Cc1ccc(-c2ccc(CCC(=O)O)n2-c2cccc(O)c2)cc1,"inconclusive: 17.8 µM [activator, partial curve, poor fit]",–
COc1ccc(S(=O)(=O)Nc2cccc3c2O[C@H](CN(C)S(=O)(=O)c2ccc(F)cc2)[C@H](C)CN([C@H](C)CO)C3=O)cc1,"inconclusive: 28.2 µM [activator, single point]",–
O=C(O)c1ccc2c(c1)[C@@H]1C=CC[C@@H]1[C@H](c1ccccn1)N2,"inconclusive: 17.8 µM [activator, partial curve, poor fit]",–
